Measured values as given in PubChem BioAssay AID686978 (National Center for Advancing Translational Sciences (NCATS), 2013).
About 64,000 (15%) of roughly 420,000 compounds were called active. This list was built around the results that the source calls inconclusive (neither active nor inactive); the mix of calls is not that of the screen. Calls follow the shape of the dose curve; as a rule, active = well fitted inhibition curve with a large enough effect; inconclusive = small, poorly fitted or top-dose-only effect; inactive = flat fitted curve, though single readings scatter. No potency is given beside an inconclusive call; the fits are too rough.

Test: qHTS for Inhibitors of human tyrosyl-DNA phosphodiesterase 1 (TDP1): qHTS in cells in absence of CPT; also: nearly all actives have a fitted effect of over 55% in size
Settings: DT40 Tdp1-/- hTDP1 cells, no CPT, ATP luminescence, 48 h; series mostly up to 46.2 µM
In short: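 Chicken DT40 Tdp1-/- cells stably complemented with human TDP1 were seeded at 400 cells/well with DMSO in place of 20 nM camptothecin. After compound pinning, cells grew at least 48 hr at 37 °C; viability read by CellTiter-Glo luminescence.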
Potency is read from the fitted curve at half-maximal effect; tags tell the direction and shape of the fitted curve.

Compound | Potency
CCC(Sc1nc2ccncc2[nH]1)C(=O)Nc1cc(Cl)ccc1C (configuration not stated) | active: 18.4 µM
Cc1ccccc1Nc1cc(C)c2c(O)cccc2n1 | inconclusive [inhibitor, single point]
CC1(C)CC(=O)C=C(Nc2cc(-c3ccccc3)[nH]n2)C1 | inactive
CCC(=O)NC(=S)Nc1ccc(NC(=O)COc2ccccc2)cc1 | inconclusive [inhibitor, full curve, poor fit]
CCN1C(=O)[C@H]2[C@@H](c3ccc(C(F)(F)F)cc3)N[C@]3(CCCN(Cc4cccn4C)C3=O)[C@H]2C1=O | inconclusive [inhibitor, single point]
COc1ccccc1C(=O)NC(CCSC)C(=O)NCCCn1nc(C)cc1C (configuration not stated) | inactive
COc1cc(OC)c2c3c(c(C4CCCCC4)nc2c1)CCCC3 | inconclusive [inhibitor, single point]
Cc1ccccc1-n1nc(C)c2c1N=C1C(Cl)=CC(Cl)=CN1C2c1ccc(C(=O)O)cc1 (configuration not stated) | inactive
CCOC(=O)C1(CCCc2ccccc2)CCN(C(=O)c2ocnc2C)CC1 | inconclusive [inhibitor, single point]
CCNC(=O)CSc1nnc(-c2ccc(OC)cc2)n1CC(C)C | inactive
CCc1ccccc1NC(=O)Cn1c(=O)n(CCCCCC(=O)NCc2ccc(C)cc2)c(=O)c2sccc21 | inconclusive [inhibitor, single point]
Cn1cnc2c1c(=O)n(Cc1ccccc1)c(=O)n2C | inactive
O=C(Cn1nnc(-c2ccccc2)c1COc1ccc2ccccc2c1)NCC1CC1 | inconclusive [inhibitor, single point]
COc1ccc(-c2cc3ccc(OC(C)C(=O)O)cc3oc2=O)cc1 (configuration not stated) | inactive
Cc1ccc(S(=O)(=O)Nc2ccc(Cl)cc2)cc1NC(=O)c1cc2c(s1)CCCC2 | inconclusive [inhibitor, single point]
CCOc1cc(/C=C2\SC(=S)N(Nc3ccccc3)C2=O)ccc1O | inconclusive [inhibitor, single point]
C[C@@H]1CN([C@H](C)CO)C(=O)CCCn2cc(nn2)CO[C@H]1CN(C)C(=O)Nc1cccc(C(F)(F)F)c1 | inconclusive [inhibitor, full curve]
O=C(COC(=O)c1cc(=O)[nH]c2ccccc12)NCc1ccc(Cl)cc1 | inactive
COc1cc(/C=N/O)cc(Br)c1OCc1cccc(Cl)c1 | inconclusive [inhibitor, single point]
CCOC(=O)c1cccc(NC(=O)CC2C(=O)N(c3ccc(Cl)cc3)C(=O)N2C2CCCC2)c1 (configuration not stated) | active: 18.4 µM
Cc1ccc(S(=O)(=O)N[C@@H](C)C(=O)N2CCC(C(=O)N[C@@H](Cc3ccccc3)C(=O)O)CC2)cc1 | inactive
Nc1ccc(Nc2ccncc2[N+](=O)[O-])cc1 | inactive
Cc1cccc(-n2nnc(C(=O)NC3CCCc4ccccc43)c2N)c1 (configuration not stated) | active: 18.4 µM
CCOC(=O)N1CCN(C(=O)c2ccc3c(=O)n(-c4ccc(OC)cc4OC)c(=S)[nH]c3c2)CC1 | inconclusive [inhibitor, single point]

Compound | Potency
Cc1cc(C)c(S(=O)(=O)Nc2cnc3ccccc3c2)c(C)c1 | inconclusive [inhibitor, partial curve, poor fit]
CCc1nc2ccc(C(=O)NCCCN(C)C)cn2c1N(C)CCCc1ccccc1 | inconclusive [inhibitor, single point]
CCC1=C2CC[C@H]3C(=O)N(c4ccccc4)C(=O)[C@H]3[C@H]2[C@@]2(C)C(=NCc3ccccc3)OC(=O)N2C1=O | inconclusive [inhibitor, single point]
Cc1ccc2oc(=O)cc(CN3CCCCC3)c2c1 | inactive
CC(=O)Nc1ccc(/C=C/c2ccccn2)cc1 | inactive
CCN(c1ccccc1)S(=O)(=O)c1ccc(OC)c(NC(=O)C2CCC2)c1 | inconclusive [inhibitor, single point]
O=C1CC(c2ccccc2)CC(O)=C1C=NCc1ccc(Cl)cc1 (configuration not stated) | inactive
COc1cc(C(=O)NCCOc2ccccc2C)cc(OC)c1OC | inconclusive [inhibitor, single point]
O=c1c(CCc2ccccc2)nc2cnc(N3CCNCC3)nc2n1Cc1cccs1 | inactive
O=C(CSc1ccc(-c2ccco2)nn1)NCc1ccccc1Cl | inconclusive [inhibitor, single point]
Cc1cc(N2CCC(C(=O)Nc3ccc(F)cc3C)CC2)n2nc(C)c(-c3ccc(Cl)cc3)c2n1 | inactive
CC(=O)c1ccc(Cc2ccc(C(C)=O)s2)s1 | inconclusive [inhibitor, partial curve, poor fit]
O=C(Cc1ccccc1)NNc1ccc2ccccc2c1 | inactive
Cc1ccc(C)c(NC(=O)c2ccc(S(=O)(=O)N(C)CC3CCCO3)cc2)c1 (configuration not stated) | inconclusive [inhibitor, partial curve]
CC1(C(=O)NS(=O)(=O)c2ccccc2OC(F)(F)F)CCN1C(=O)Cc1ccccc1 (configuration not stated) | inactive
C=CCc1cccc(C=Nc2c[nH]c(=O)[nH]c2=O)c1O | inactive
CCOc1ccc(C(=O)NCC(=O)N2CCC(C)CC2)cc1OCC | inactive
CN1CCN(c2nc(C(N)=O)cc(-c3ccccc3)n2)CC1 | inactive
CN(CC(=O)Nc1cccc(F)c1)C(=O)CCSc1ccc(F)cc1 | inconclusive [inhibitor, partial curve, poor fit]
CC(=O)Nc1ccc(S(=O)(=O)N(CC(=O)NCC2CCCO2)Cc2ccccc2Cl)cc1 (configuration not stated) | inconclusive [inhibitor, single point]
Cc1cc(Br)ccc1NC(=O)C1CCCN(S(=O)(=O)c2cccc3nonc23)C1 (configuration not stated) | inactive
CCOC(=O)NC(Nc1nnc(SCC)s1)(C(F)(F)F)C(F)(F)F | inconclusive [inhibitor, partial curve]
Cc1cc(C(=O)NC2Cc3ccccc3C2)c(C)o1 | inconclusive [inhibitor, single point]
